PubChem BioAssay AID1346428 (National Center for Advancing Translational Sciences (NCATS), 2018)
The whole screen tested about 48,000 compounds, of which about 1,200 (2.5%) were called active. Inconclusive results (about 2%) are left out.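 The calls were made as follows: active = activation of at least 60% and not above a set upper limit (about 1 call in 100 departs from these limits); inconclusive = activation of 40% to 60%, or above that upper limit; inactive = activation under 40%.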 Some of the results follow.

Target: Probable G-protein coupled receptor 32 (Homo sapiens) (UniProt O75388)
Test: qHTS for Agonists of Human Resolvin D1 Receptor DRV1
Settings: CHO-K1 GPR32 beta-arrestin PathHunter luminescence, 90 min; at 76.9 µM; stronger effect = higher value; zero percent set by DMSO-only wells
Source text: Endogenous resolution of inflammation is known to be transduced through various GPCRs and their natural mediators of lipid nature. Resolvin D1 (RvD1) is one of the active players in resolution of acute inflammation through regulation of anti-inflammatory pathways; it is known to enhance phagocytosis of human macrophages, limits neutrophils infiltration, etc. […] The search for GPR32-activating small molecules with anti-inflammatory effects similar to its natural omega-3 derivative ligand in order to use them as research tools for further studies of inflammation and its resolution was the goal of this screening project. For primary screening assay, we used CHO-K1 GPR32 beta-arrestin cell line (DiscoveRx, #93-0321C2A) and the PathHunter(R) beta-Arrestin Assay (DiscoveRx) which measures recruitment of beta-arrestin to the GPR32 and generates chemiluminescent signal. These engineered cells stably transfected with GPR32 co-express GPR32-fused small 42-amino acid fragment of beta-Gal called ProLinktrade mark, and […] -tagged beta-Arrestin fusion protein. When GPR32 is activated by a ligand, it stimulates binding of beta -Arrestin to ProLink-tagged GPR32, and two parts of beta-Gal complement forming a functional enzyme. Upon substrate (PathHunter(R) Detection reagent) addition, beta-Gal hydrolyzes it and generates a chemiluminescent signal.
The cells were thawed and plated in thawing media containing F-12 HAM (Invitrogen, #11765-054), 10% FBS (Invitrogen, #10082), 1x Glutamine, and 1x Pen/Strep onto the 175-mm flask for 24 hours. Then, thawing media was replaced with Growth media which contains 800microg/mL Geneticin (Invitrogen, #10131) and 300microg/mL Hygromycin B (Invitrogen, #10687) in addition to described above. For the assay, the cells were harvested at ~80% confluent stage with Cell Dissociation buffer (Gibco, #13151), and seeded at 2,500 cells/ 3microL/well in assay media (PathHunter(R) Cell Plating Reagent, DiscoverX, #93-0563R1B) using MultiDrop Combi dispenser (Thermo Scientific, Logan, UT) onto white solid bottom tissue culture-treated 1536-well plates (Greiner # 789173-F) and allowed to attach overnight at 37 degrees C, 95% humidity, 5% CO2, . Next, 23nL/well of compound solutions in DMSO were added with a Pin Tool (Kalypsis, San Diego, CA) to the assay plates. As the basal control (EC0), 23 nL/well of DMSO was used on each plate. The cells were incubated in the presence of compounds or DMSO for 90 minutes at 37 degrees C, 5% CO2. Subsequently, 1.5microL/well of PathHunter(R) Detection Reagent prepared per the manufacturer's instructions was added to the assay plates with BioRAPTR FRDtrade mark dispenser (Beckman Coulter, San Francisco, CA) and incubated for 1 hour at ambient temperature prior to the measurement of the luminescent signal on ViewLux(R) uHTS Microplate Imager (Perkin Elmer, Waltham, MA).

Chain of UniProt O75388 (O75388 whole entry, looked up): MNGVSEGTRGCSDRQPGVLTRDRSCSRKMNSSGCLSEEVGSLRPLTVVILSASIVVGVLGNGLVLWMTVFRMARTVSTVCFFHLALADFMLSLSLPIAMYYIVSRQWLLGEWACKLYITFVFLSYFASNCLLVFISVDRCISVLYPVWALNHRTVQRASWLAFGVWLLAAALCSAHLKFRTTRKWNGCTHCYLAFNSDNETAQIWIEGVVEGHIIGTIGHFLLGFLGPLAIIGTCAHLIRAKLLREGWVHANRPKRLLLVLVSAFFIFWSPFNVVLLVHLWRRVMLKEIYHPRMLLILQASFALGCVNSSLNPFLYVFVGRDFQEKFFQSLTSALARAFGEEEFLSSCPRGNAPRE

activation, inactive:
O=C(O)c1ccc(NCc2nc3ccccc3n2CCOc2ccccc2Cl)cc1 -8.01%
Cc1nc(-c2ccc(Cl)cc2)sc1CCNC(=O)C(=O)Nc1ccc2c(c1)OCCO2 15%
CCOC(=O)N1CCC(NC(=O)c2cnn(-c3ccc(F)cc3)c2-n2cccc2)CC1 -5.39%
COc1ccc(N(C)C(=O)c2nn(-c3ccc(C)cc3)c(=O)n(C)c2=O)c(OC)c1 -17.7%
Cc1cc(C)cc(NC(=O)N2CCC(C(N)=O)(N3CCCCC3)CC2)c1 20.8%
Cc1ccc(-c2nn(-c3ccc(F)cc3F)c3c2cnc2ccc(F)cc23)cc1 2.71%
COc1ccc(CNC(=O)CC(C)n2nc(C)cc2C)cc1 (centres undefined) 2.4%
CCN(CC)c1cc(C)c2cc(NC(=O)/C=C/c3ccccc3Cl)ccc2n1 -26.2%
COc1ccc(N2CC(NC(=O)C(=O)c3c[nH]c4ccccc34)CC2=O)cc1 (centres undefined) -3.25%
CC(C)Oc1ccc(C(=O)N2CCN(c3nc4c(F)cc(F)cc4s3)CC2)cc1 -1.63%
O=c1c(N2CCN(c3ccccc3)CC2)csc2ccc(Cl)cc12 -40.4%
O=C(CCSCc1cccc(Cl)c1)NCc1ccccc1Cl -14.5%
O=C(CSc1ncc2c(n1)-c1cc(Cl)ccc1N(Cc1ccccc1)S2(=O)=O)Nc1ccc(F)cc1F 0.997%
CCOCCn1ccc2c(OCC(=O)NCc3ccc(F)cc3)cccc2c1=O -11.2%
CCCCn1cc(S(=O)(=O)c2ccccc2)c(=O)c2cc(F)c(N3CCN(CCC)CC3)cc21 3.69%
CCN1c2ccccc2-n2cccc2C12CCN(C(=O)Nc1ccccc1Br)CC2 -30.3%
COc1ccc(NCc2cc3cc4c(cc3n(CC(=O)Nc3cccc(F)c3)c2=O)OCO4)cc1 -51.1%
Cc1ccc(Cl)cc1-n1c(CCC(=O)O)ccc1-c1cccs1 -9.7%
COc1cc(OC)c(NC(=O)Cn2c(=O)c(C(F)(F)F)nc3ccccc32)cc1Cl 21.7%
CCc1cccc(NC(=O)Cn2c(=O)n(-c3ccccc3C)c(=O)c3c2c2cc(C)ccc2n3C)c1 18.4%
COC(=O)c1ccc(CSc2nc3c([nH]c4ccccc43)c(=O)n2-c2ccc(F)cc2)o1 3.58%
Clc1ccccc1N1CCN(Cc2nnc(-c3ccccc3)o2)CC1 30.6%
O=C(Cn1c(=O)n(-c2ccccc2)c(=O)c2ccc(C(=O)NCc3ccc4c(c3)OCO4)cc21)Nc1ccc(F)cc1 -4.25%
COc1ccc(CCCc2nnc(SCC(=O)Nc3cccc(C)c3)o2)cc1C 15.8%
CCCCc1nn2c(=O)cc(COC(=O)c3cccc(NC(=O)c4cccc(Cl)c4)c3)nc2s1 -10.1%
Cc1ccccc1CN1CCc2nc(N3CCN(c4ncccn4)CC3)ncc2C1 -17.3%
CCCCN(C)CCCNC(=O)Cn1ncc2c3ccccc3n(Cc3cccc(Cl)c3)c2c1=O -13.1%
CCOc1ccccc1C(=O)Oc1c(S(=O)(=O)c2ccc(C)cc2)c(C)nn1-c1ccccc1 36.2%
Cc1cccc(N2CCN(S(=O)(=O)c3cn(C)c(C)n3)CC2)c1C 18.2%
COc1cc(NC(=O)CSc2nc(-c3cccs3)cc(C(F)(F)F)n2)cc(OC)c1OC 1.26%
COc1cccc(-n2c(SCC(=O)N3CCc4ccccc43)nc3c([nH]c4ccccc43)c2=O)c1 -1.83%
COCCNc1ccc(-c2nc(-c3ccncc3)no2)cc1[N+](=O)[O-] -16.8%
Cc1cccc(CSc2nc3c(c(=O)[nH]2)CCC3)c1 24.2%
O=C(Nc1ccc(F)cc1F)c1cccc2c1C(=O)N(C1CCCCC1)C2 -2.57%
Cn1cnc2c(NCc3ccccc3)nc(NCCO)nc21 -9.6%
COc1ccc(S(=O)(=O)NCc2cccn2Cc2cccc(C)c2)cc1Cl 3.43%
CNC(=O)c1ccc2nc(CCc3ccccc3)oc2c1 -7.05%
CCc1ccc(C2CC(=O)c3c([nH]c(C(=O)OC4CCC(C)CC4)c3C)C2)cc1 (centres undefined) -5.64%
CCc1cccc(C)c1NC(=O)C(CC)n1nc(C)c2c(C)n(-c3ccccc3)nc2c1=O (centres undefined) -13.7%
COc1ccc(-c2nc(SCC(=O)Nc3ccccc3)c(-c3ccc(F)cc3)[nH]2)cc1OC -24.9%
COc1ccc(OC)c(S(=O)(=O)N2Cc3ccccc3CC2C(=O)Nc2ccc(C)cc2C)c1 (centres undefined) -14.7%
CCS(=O)(=O)N1CCc2cc(C(=O)N3CCN(c4ccc(OC)cc4)CC3)ccc21 -3.17%
COc1ccc(-c2cc(C(F)(F)F)nc(SCC(=O)N3CCCCC3)n2)cc1OC -1.36%
Cc1ccc(N2CC(C(=O)NCCS(=O)(=O)N3CCN(c4ccccc4F)CC3)CC2=O)cc1 (centres undefined) -18.8%
Cc1ccc(NC(=O)CSc2nc3ccc(Br)cc3[nH]2)c(C)c1 1.05%
COc1ccc(S(=O)(=O)N(CC(=O)Nc2ccc(F)c(Cl)c2)c2ccc(C)cc2)cc1OC -18.5%
O=C(COc1ccc(F)cc1)Nc1nnc(S(=O)(=O)N2CCc3ccccc32)s1 16%
Cc1nc2c3ccccc3nc(NNC(=O)CCC(=O)N3CCN(c4cccc(Cl)c4)CC3)n2n1 -21.1%
CCOc1ccc(N(Cc2ccccc2)C(=O)c2nc(SCC)ncc2Cl)cc1 -33.4%
Cc1cccc(NC(=O)CSc2nc3ccccc3nc2N2CCC(C)CC2)c1 7.68%
CC1=C(c2ccc(C(C)C)cc2)S(=O)(=O)NC1=NCc1ccccc1C 21.1%
CN(C)CCN(C(=O)c1ccco1)c1nc2c(F)cc(F)cc2s1 31.3%
CC1CCN(C(=O)CSc2c3c(nc4ccc(Cl)cc24)CCCC3)CC1 -18.6%
COc1cccc2c1C(=O)c1c(O)c3c(c(O)c1C2=O)C[C@@](O)(C(=O)CO)C[C@@H]3O[C@H]1C[C@H](N)[C@H](O)[C@H](C)O1 -38.6%
O=C(Nc1ccc(OC(F)(F)F)cc1)C1CCN(S(=O)(=O)c2ccc3[nH]c(=O)ccc3c2)CC1 -2.87%
Cc1ccc(Nc2cc(C)nc(-n3nc(C)cc3C)n2)cc1 -33.4%
O=C(NC1CCCCC1)c1ccc2c(c1)N(Cc1cccc(F)c1)C(=O)c1ccccc1S2 -18.1%
Cc1ccc(-c2noc(CNC(=O)COc3cc(C)c(Br)c(C)c3)n2)cc1 -14.9%
CCOCCc1nnc(NC(=O)C(=O)c2cc(C)n(-c3cccc(C)c3)c2C)s1 -2.45%
Cn1cnc(S(=O)(=O)N2CCC(C(=O)Nc3ccc(F)cc3F)CC2)c1 -6.55%
CCOc1ccc(CNC(=O)c2ccc3c(c2)sc2nc(-c4ccccc4)cn23)cc1 -12.9%
O=C(NC1CCCCC1)c1ccc2c(c1)sc1nc(-c3ccc(F)cc3)cn12 8.18%
Cc1ccc(-n2nc(C(=O)N3CCN(c4ccc(F)cc4)CC3)c(=O)n(C)c2=O)cc1 0.396%
COc1ccc2nc(NC(=O)c3nc(S(=O)(=O)Cc4ccccc4F)ncc3Cl)sc2c1 -15.4%
Cc1ccc(C)c(N2CCN(c3nccn4nc(-c5ccc(Br)cc5)cc34)CC2)c1 0.963%
Cc1ccc(Cl)cc1NC(=O)C(NS(=O)(=O)c1cccc2nsnc12)c1ccccc1 (centres undefined) -27.3%
COc1ccc(NC(=O)C2CCCN(S(=O)(=O)c3ccc(Cl)cc3)C2)cc1 (centres undefined) 2.13%
Cc1nc2nc(NC(=O)c3ccc(F)cc3)[nH]n2c(=O)c1Cc1ccccc1 11.4%
COc1cc(C2c3c(oc4ccccc4c3=O)C(=O)N2c2nc(C)c(C)s2)ccc1O (centres undefined) -8.57%
O=C(COCc1cc(-c2cccs2)on1)NCc1ccccc1Cl -9.69%
Cc1cccn2c(=O)c(/C=C(\C#N)c3nc4ccccc4s3)c(Oc3ccc(Br)cc3)nc12 12.2%
Cn1c(=O)oc2cc(S(=O)(=O)CCC(=O)NCCc3ccccc3)ccc21 -14.1%
Cc1ccccc1NC(=O)Nc1ccc2nc(N3CCN(C)CC3)cc(C)c2c1 30.7%
CC(=O)c1cc(-c2ccc(F)cc2)n(CC(=O)NC(C)c2ccccc2)c1C (centres undefined) -23%
Cc1c(C(=O)OC2CCCCC2)[nH]c2c1C(=O)CC(c1ccccc1Cl)C2 (centres undefined) 4.35%
O=C(NCc1ccccc1F)C1CCN(Cc2cc3ccccc3n2Cc2cccc(Cl)c2)CC1 -54.5%
NCCNC(=O)c1ccc(Cl)cn1 -18%
Cc1cc(C)n(-c2nnc(Nc3ccc(C(C)C)cc3)c3ccccc23)n1 -14.7%
CC(=O)c1ccc(NC(=O)C2=CC(c3cccs3)=NS(=O)(=O)N2C)cc1 0.578%
COc1cccc(C(=O)NC(=O)Nc2ccc(-n3nc(C(F)(F)F)cc3C(F)(F)F)cc2)c1 -9.72%
COc1ccc(CNCc2ccc3c(c2)n(C)c(=O)n3C)cc1 1.95%
Cc1ccc2nc(-c3ccc(NC(=O)C(F)(F)F)cc3)sc2c1 -6.8%
COc1cc(Nc2nc(SCc3cccc(Cl)c3)nc3ccccc23)cc(OC)c1 -30.4%
Fc1ccc(Nc2c3c(nc4nncn24)CCC3)cc1 -5.32%
